# Some of the results follow.
# Molecular target: no compound (DMSO)
# Experiment: log2 fold change of degron read counts, EGFP-low vs EGFP+ sorted cells; higher = lower degron-EGFP level without compound (poor expression or instability)
# Conditions: compound: DMSO control; 18 h
# 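Further: jurkat cells carrying a lentiviral library of mutant zinc finger degrons fused to EGFP plus mCherry, mCherry+ cells FACS sorted, degron abundance counted by next-generation sequencing.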
row,Sequence,log2 fold change of degron read counts
1,LCCNQCGFTCTQKGNLLRHIKL,0.318
2,FFCNQCGASFTQKGNLLRHIKL,-1.21
3,FNCDICGAFFTQKGNLLRHIKL,-0.05
4,FCCNQCGHRFTQKGNLLRHIKL,0.407
5,FGCNVCGAYFTQKGNLLRHIKL,0.802
6,FDCNQCGAQFTQKGNLLRHIKL,-1.07
7,LWCEICGFLCTQKGNLLRHIKL,2.34
8,FACPVCGAKFTQKGNLLRHIKL,0.0705
9,LSCNQCGFDCTQKGNLLRHIKL,0.0919
10,FCCEVCGAPFTQKGNLLRHIKL,-0.85
11,LTCEICGFNCTQKGNLLRHIKL,-0.216
12,FICEVCGANFTQKGNLLRHIKL,-1.11
13,FYCEICGRPFTQKGNLLRHIKL,-0.159
14,FDCDICGARFTQKGNLLRHIKL,-2.67
15,FTCSVCGHSFTQKGNLLRHIKL,-1.25
16,FVCNICGAKFTQKGNLLRHIKL,-0.488
17,FVCDVCGAAFTQKGNLLRHIKL,-1.78
18,FCCPICGHMFTQKGNLLRHIKL,0.51
19,FKCNICGAQFTQKGNLLRHIKL,-0.747
20,FICPVCGARFTQKGNLLRHIKL,0.177
21,FNCEVCGAWFTQKGNLLRHIKL,-0.922
22,FICNICGARFTQKGNLLRHIKL,-0.899
23,FVCNQCGADFTQKGNLLRHIKL,-2.91
24,FDCSVCGHSFTQKGNLLRHIKL,-0.957
25,FECNVCGAIFTQKGNLLRHIKL,-0.706

row,Sequence,log2 fold change of degron read counts
1,FCCNICGALFTQKGNLLRHIKL,-0.33
2,FWCPICGRHFTQKGNLLRHIKL,0.106
3,FDCSVCGHMFTQKGNLLRHIKL,0.845
4,FYCPICGANFTQKGNLLRHIKL,-0.127
5,FHCNQCGAHFTQKGNLLRHIKL,-0.529
6,FMCPVCGALFTQKGNLLRHIKL,0.761
7,FMCSVCGHGFTQKGNLLRHIKL,-0.172
8,FICNQCGRVFTQKGNLLRHIKL,-0.048
9,FKCNQCGAQFTQKGNLLRHIKL,-0.557
10,FDCPICGAPFTQKGNLLRHIKL,-0.062
11,FQCSVCGHQFTQKGNLLRHIKL,-1.4
12,FHCPICGAPFTQKGNLLRHIKL,0.439
13,FLCNQCGHLFTQKGNLLRHIKL,0.637
14,FKCPICGHKFTQKGNLLRHIKL,-0.808
15,FFCNQCGREFTQKGNLLRHIKL,-0.861
16,FNCEICGAGFTQKGNLLRHIKL,-2.32
17,LYCEICGFKCTQKGNLLRHIKL,-0.281
18,LICNQCGFSCTQKGNLLRHIKL,0.218
19,FACNQCGHLFTQKGNLLRHIKL,0.0483
20,FLCPQCGARFTQKGNLLRHIKL,-0.597
21,FDCNICGAVFTQKGNLLRHIKL,-0.41
22,FCCNVCGALFTQKGNLLRHIKL,-0.667
23,FECDQCGAMFTQKGNLLRHIKL,-2.48
24,FKCDVCGAAFTQKGNLLRHIKL,-1.14
25,FKCDVCGAIFTQKGNLLRHIKL,-0.129
